# Experimental data from the supplement of paper PMC8728848.
# Some of the results follow.
# B1: Epa6 (Candida glabrata), Q6DTM7_CANGB (protein)
# chain: MGSSHHHHHHSSGLVPRGSHMKDDYSSSLSNNNLGWTDPTEFPLGCSPNVTTPKNGLSMELYSYDYLKSGSNPCWDAAYLDPNYPRTGYKSHRLLAKVENVAGNINFYYHAPMGCTSLFDTLPQAYNYRTPLTMTNFTMLLYGYFKPKVTGYHTFTISADDLLFVNFGAGNAFDCCKRESSADDFGNYQAYAVWGSQTAKDDLTVHLDAGLYYPIRIFFNNRDNDGALSLTLKTESDPNPVIDFSDYFYSFDDTKDGCPGLVSYDTS
# Key:
# Assay in all cases: glycan array binding signal (z-score within array); higher = stronger binding
# Conditions in all cases: glycan notation: IUPAC condensed, linker removed
# [1] = biological target: Gal(b1-3)GalNAc(b1-3)Gal
# Procedure, shortened: (§1)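 From the Consortium for Functional Glycomics database, 3228 arrays were curated, keeping only those whose protein sequence was available. Binding is given as a within-array Z-score averaged across arrays sharing a protein sequence and across linkers. Negative Z-scores can be read as non-binding.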
# [2] = biological target: Gal(b1-3)GalNAc(b1-3)Gal(a1-4)Gal(b1-4)Glc
# Procedure, shortened: as §1
# [3] = biological target: Gal(b1-3)GalNAc(b1-4)Gal(b1-4)Glc
# Procedure, shortened: as §1
# [4] = biological target: Gal(b1-3)GalNAc(b1-4)[Neu5Ac(a2-3)]Gal(b1-4)Glc
# Procedure, shortened: as §1
# [5] = biological target: Gal(b1-3)GlcNAc
# Procedure, shortened: as §1
# [6] = biological target: Gal(b1-3)GlcNAc(a1-3)Gal(b1-4)GlcNAc
# Procedure, shortened: as §1
# [7] = biological target: Gal(b1-3)GlcNAc(a1-6)Gal(b1-4)GlcNAc
# Procedure, shortened: as §1
# [8] = biological target: Gal(b1-3)GlcNAc(b1-2)Man
# Procedure, shortened: as §1
# [9] = biological target: Gal(b1-3)GlcNAc(b1-2)Man(a1-3)[Gal(b1-3)GlcNAc(b1-2)Man(a1-6)]Man(b1-4)GlcNAc(b1-4)GlcNAc
# Procedure, shortened: as §1
# [10] = biological target: Gal(b1-3)GlcNAc(b1-2)Man(a1-3)[Gal(b1-3)GlcNAc(b1-2)Man(a1-6)]Man(b1-4)GlcNAc(b1-4)[Fuc(a1-6)]GlcNAc
# Procedure, shortened: as §1
# [11] = biological target: Gal(b1-3)GlcNAc(b1-2)Man(a1-3)[GlcNAc(b1-4)][Gal(b1-3)GlcNAc(b1-2)Man(a1-6)]Man(b1-4)GlcNAc(b1-4)GlcNAc
# Procedure, shortened: as §1
# [12] = biological target: Gal(b1-3)GlcNAc(b1-2)[Gal(b1-3)GlcNAc(b1-6)]Man(a1-6)[Gal(b1-3)GlcNAc(b1-2)Man(a1-3)]Man(b1-4)GlcNAc(b1-4)GlcNAc
# Procedure, shortened: as §1
# [13] = biological target: Gal(b1-3)GlcNAc(b1-3)Gal(b1-3)GlcNAc
# Procedure, shortened: as §1
# [14] = biological target: Gal(b1-3)GlcNAc(b1-3)Gal(b1-4)Glc
# Procedure, shortened: as §1
# [15] = biological target: Gal(b1-3)GlcNAc(b1-3)Gal(b1-4)GlcNAc
# Procedure, shortened: as §1
# [16] = biological target: Gal(b1-3)GlcNAc(b1-3)Gal(b1-4)GlcNAc(b1-2)Man(a1-3)[Gal(b1-3)GlcNAc(b1-3)Gal(b1-4)GlcNAc(b1-2)Man(a1-6)]Man(b1-4)GlcNAc(b1-4)GlcNAc
# Procedure, shortened: as §1
# [17] = biological target: Gal(b1-3)GlcNAc(b1-3)Gal(b1-4)GlcNAc(b1-2)[Gal(b1-3)GlcNAc(b1-3)Gal(b1-4)GlcNAc(b1-6)]Man(a1-6)[Gal(b1-3)GlcNAc(b1-3)Gal(b1-4)GlcNAc(b1-2)Man(a1-3)]Man(b1-4)GlcNAc(b1-4)[Fuc(a1-6)]GlcNAc
# Procedure, shortened: as §1
# [18] = biological target: Gal(b1-3)GlcNAc(b1-3)Gal(b1-4)GlcNAc(b1-3)Gal(b1-4)GlcNAc(b1-2)[Gal(b1-3)GlcNAc(b1-3)Gal(b1-4)GlcNAc(b1-3)Gal(b1-4)GlcNAc(b1-6)]Man(a1-6)[Gal(b1-3)GlcNAc(b1-3)Gal(b1-4)GlcNAc(b1-3)Gal(b1-4)GlcNAc(b1-2)Man(a1-3)]Man(b1-4)GlcNAc(b1-4)[Fuc(a1-6)]GlcNAc
# Procedure, shortened: as §1
# [19] = biological target: Gal(b1-3)GlcNAc(b1-3)Gal(b1-4)GlcNAc(b1-6)[Gal(b1-3)GlcNAc(b1-3)]Gal(b1-4)Glc
# Procedure, shortened: as §1
# [20] = biological target: Gal(b1-3)GlcNAc(b1-3)Gal(b1-4)[Fuc(a1-3)]GlcNAc
# Procedure, shortened: as §1
# [21] = biological target: Gal(b1-3)GlcNAc(b1-3)Gal(b1-4)[Fuc(a1-3)]GlcNAc(b1-6)[Gal(b1-3)GlcNAc(b1-3)]Gal(b1-4)Glc
# Procedure, shortened: as §1
# [22] = biological target: Gal(b1-3)GlcNAc(b1-3)GalNAc
# Procedure, shortened: as §1
# [23] = biological target: Gal(b1-3)GlcNAc(b1-6)Gal(b1-4)GlcNAc
# Procedure, shortened: as §1
# [24] = biological target: Gal(b1-3)GlcNAc(b1-6)GalNAc
# Procedure, shortened: as §1
# [25] = biological target: Gal(b1-3)GlcNAc(b1-6)[Gal(b1-3)]GalNAc
# Procedure, shortened: as §1
# [26] = biological target: Gal(b1-3)GlcNAc6S
# Procedure, shortened: as §1
# [27] = biological target: Gal(b1-3)[Fuc(a1-4)]GlcNAc
# Procedure, shortened: as §1
# [28] = biological target: Gal(b1-3)[Fuc(a1-4)]GlcNAc(b1-2)Man
# Procedure, shortened: as §1
# [29] = biological target: Gal(b1-3)[Fuc(a1-4)]GlcNAc(b1-2)Man(a1-3)[Gal(b1-3)[Fuc(a1-4)]GlcNAc(b1-2)Man(a1-6)]Man(b1-4)GlcNAc(b1-4)[Fuc(a1-6)]GlcNAc
# Procedure, shortened: as §1
# [30] = biological target: Gal(b1-3)[Fuc(a1-4)]GlcNAc(b1-3)Gal(b1-3)[Fuc(a1-4)]GlcNAc
# Procedure, shortened: as §1
# [31] = biological target: Gal(b1-3)[Fuc(a1-4)]GlcNAc(b1-3)Gal(b1-4)[Fuc(a1-3)]GlcNAc
# Procedure, shortened: as §1
# [32] = biological target: Gal(b1-3)[Fuc(a1-4)]GlcNAc(b1-6)GalNAc
# Procedure, shortened: as §1
# [33] = biological target: Gal(b1-3)[GlcNAc(b1-6)]GalNAc
# Procedure, shortened: as §1
# [34] = biological target: Gal(b1-3)[Neu5Ac(a2-6)]GalNAc
# Procedure, shortened: as §1
# [35] = biological target: Gal(b1-3)[Neu5Ac(a2-6)]GlcNAc(b1-4)Gal(b1-4)Glc
# Procedure, shortened: as §1
# [36] = biological target: Gal(b1-3)[Neu5Ac(b2-6)]GalNAc
# Procedure, shortened: as §1
# [37] = biological target: Gal(b1-4)Gal
# Procedure, shortened: as §1
# [38] = biological target: Gal(b1-4)GalNAc(a1-3)[Fuc(a1-2)]Gal(b1-4)GlcNAc
# Procedure, shortened: as §1
binder,measurement,setting,value
B1,glycan array binding signal (z-score),[1],3.02
same,glycan array binding signal (z-score),[2],1.6
same,glycan array binding signal (z-score),[3],3.9
same,glycan array binding signal (z-score),[4],1.52
same,glycan array binding signal (z-score),[5],-0.129
same,glycan array binding signal (z-score),[6],-0.288
same,glycan array binding signal (z-score),[7],-0.287
same,glycan array binding signal (z-score),[8],-0.043
same,glycan array binding signal (z-score),[9],-0.107
same,glycan array binding signal (z-score),[10],-0.16
same,glycan array binding signal (z-score),[11],0.156
same,glycan array binding signal (z-score),[12],-0.066
same,glycan array binding signal (z-score),[13],-0.207
same,glycan array binding signal (z-score),[14],-0.265
same,glycan array binding signal (z-score),[15],-0.312
same,glycan array binding signal (z-score),[16],-0.147
same,glycan array binding signal (z-score),[17],-0.073
same,glycan array binding signal (z-score),[18],-0.041
same,glycan array binding signal (z-score),[19],0.257
same,glycan array binding signal (z-score),[20],-0.276
same,glycan array binding signal (z-score),[21],-0.191
same,glycan array binding signal (z-score),[22],-0.227
same,glycan array binding signal (z-score),[23],-0.086
same,glycan array binding signal (z-score),[24],-0.297
same,glycan array binding signal (z-score),[25],0.455
same,glycan array binding signal (z-score),[26],-0.208
same,glycan array binding signal (z-score),[27],-0.298
same,glycan array binding signal (z-score),[28],-0.112
same,glycan array binding signal (z-score),[29],-0.266
same,glycan array binding signal (z-score),[30],-0.27
same,glycan array binding signal (z-score),[31],-0.336
same,glycan array binding signal (z-score),[32],-0.2
same,glycan array binding signal (z-score),[33],0.49
same,glycan array binding signal (z-score),[34],0.362
same,glycan array binding signal (z-score),[35],-0.241
same,glycan array binding signal (z-score),[36],0.06
same,glycan array binding signal (z-score),[37],-0.293
same,glycan array binding signal (z-score),[38],-0.251
